Measurements from PubChem BioAssay (NCI).
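All cell lines were grown in 96-well plates and treated with compound for 48 hours. GI50 marks 50% less growth. The concentration for full growth arrest is given as TGI.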

Test system: NCI-H322M lung
Test: inhibition of tumour cell growth, NCI panel, 48 h

| Structure (SMILES) | GI50 | TGI |
| --- | --- | --- |
| COC(=O)c1c(C(=O)OC)c2ccc3c4ccccc4ccc3n2c1C(=O)C(C)Br (centres undefined) | > 100 µM | > 100 µM |
| C=C1CC[C@@H]2[C@]3(C)COC(c4ccco4)O[C@@H]3CC[C@@]2(C)[C@@H]1C/C=C1/C(=O)OCC1OC(C)=O (some centres undefined) | 25.2 µM | > 100 µM |
